# According to PubChem BioAssay AID1347417 (National Center for Advancing Translational Sciences (NCATS), 2020):
# In all, about 120,000 compounds went through this assay and about 5,300 (4.4%) were called active. The shares of active, inactive and inconclusive entries below differ from those in the screen. The call rests on the fitted dose curve; in most records, active means well fitted inhibition curve with a large enough effect; inconclusive means small, poorly fitted or top-dose-only effect; inactive means no such curve, though single readings can be large or run the other way. A potency beside an inconclusive call is a rough fit, not a confirmed value.
# Assay: qHTS Primary assay for Inhibitors of Plasmodium falciparum Dd2 growth in vitro; further: nearly all actives have a fitted effect of over 65% in size;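 on activity, negative = inhibition: plate controls were DMSO vehicle for no effect and reference drug for full effect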
# Conditions: P. falciparum Dd2 growth, SYBR Green, 72 h; activity, negative = inhibition: at 28.9 µM (top of the series) unless noted; series mostly up to 28.9 µM
# How it was run: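 Readout: SYBR Green fluorescence, 485 nm excitation, 535 nm emission, after ~16 h lysis at 37C. Before that, Dd2-infected red cells (2.5% hematocrit) grew 72 h with compound, 29 uM top final concentration.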
# Potency means the concentration at half of the fitted maximal effect; tags describe the fitted curve by direction and shape.
SMILES,Potency,outcome,"activity, negative = inhibition"
COc1ccc(CCNC(=O)CSc2cn(CCNC(=O)c3cccc(C(F)(F)F)c3)c3ccccc23)cc1OC,"inconclusive: 10 µM [inhibitor, single point]",–,–
OCC1(CCCc2ccccc2)CCN(Cc2cccc(-n3cccn3)c2)CC1,"inconclusive: 2 µM [inhibitor, partial curve, poor fit]",–,–
CCC1CN(C(=O)Nc2cccc3c2CCCC3)c2cc(Cl)ccc2O1 (stereo unspecified),"inconclusive: 17.8 µM [inhibitor, single point]",–,–
Cc1cc(C)c(CNC(=O)c2cc(-c3cccnc3)cc3c2OCCN3C(C)C)c(=O)[nH]1,"inconclusive: 1.78 µM [inhibitor, full curve, poor fit]",–,–
CCc1noc(-c2cn(C3CCCN(C(=O)c4cc(C)cc(C)c4)C3)nn2)n1 (stereo unspecified),–,inactive,–
N#Cc1ccc(CN2CCC3(C2)C(=O)N(c2ccccc2)c2ccccc23)cc1 (stereo unspecified),"inconclusive: 11.2 µM [inhibitor, single point]",–,–
COc1cccc(CN2CCc3nc(C)nc(-c4ccc(O)cc4)c3C2)c1,"inconclusive: 20 µM [inhibitor, single point]",–,–
Cc1noc([C@@H]2CC(F)(F)CN2C(=O)c2occc2C)n1,–,–,inactive: 15.2%
Cc1ccc(CC(=O)NCc2nnc3c(-c4nc(C(C)C)no4)cccn23)cc1,"inconclusive: 0.158 µM [inhibitor, full curve, poor fit]",–,–
CCOc1ccccc1CNC(=O)c1ccc(N2Cc3ccccc3Oc3ncccc32)s1,"inconclusive: 10 µM [inhibitor, single point]",–,–
COc1ccc(C(=O)N[C@H]2C[C@@H](Cc3cc(-c4ccccc4)on3)C2(C)C)cc1,active: 4.47 µM,–,–
CCCN1CCN(C(=O)Cn2c(-c3cccs3)cc3ccccc32)CC1,"inconclusive: 10 µM [inhibitor, single point]",–,–
O=C(c1ccccn1)N1CCC2(CC1)CC(N(Cc1ccc(F)cc1)C1CC1)CCO2 (stereo unspecified),"inconclusive: 14.1 µM [inhibitor, single point]",–,–
CCCCOc1ccc(C2=NC(c3cccs3)=Nc3ccc(CC)cc3N2)cc1,"inconclusive: 20 µM [inhibitor, single point]",–,–
O[C@H]1[C@H](NCc2ccc(-c3ccccc3)cc2)[C@H]2CO[C@H](O2)[C@@H]1Sc1ccccc1,–,–,inactive: -28.9% [at 44.1 µM]
CC(=O)Nc1ccc(C2(C(=O)N3CCN(c4ccccn4)CC3)CCCCC2)cc1,"inconclusive: 10 µM [inhibitor, single point]",–,–
Cc1cccc(CN2CCCCCCNC(=O)CC2)c1,"inconclusive: 11.2 µM [inhibitor, single point]",–,–
COCCCn1c(C(C)NC(=O)OCc2ccccc2)nc2cccnc21 (stereo unspecified),inactive,–,–
Cc1cc(N2CCCCC2)nc2ccc(NC(=O)/C=C/c3ccc(OC(C)C)cc3)cc12,active: 10 µM,–,–
CCCC(=O)N1CCC2(CC1)CC(N(Cc1ccc(F)cc1)C1CC1)CCO2 (stereo unspecified),"inconclusive: 3.16 µM [inhibitor, full curve, poor fit]",–,–
CC[C@H]1CN2CC[C@H]1C[C@@H]2CNCc1ccc(SC)cc1,"inconclusive: 1.26 µM [inhibitor, full curve, poor fit]",–,–
CSc1cccc(Nc2cc(C(=O)NCCc3ccc(Cl)cc3)c3ccccc3n2)c1,"inconclusive: 12.6 µM [inhibitor, partial curve, poor fit]",–,–

SMILES,Potency,outcome,"activity, negative = inhibition"
CCn1cc(CN2CCc3ccccc3C2)ccc1=O,–,–,inactive: -6.78%
COCc1noc([C@@H]2CC(F)(F)CN2C(=O)c2coc(C)n2)n1,–,–,inactive: 19.2%
CN1CCCC(CN(C)C(=O)c2cc(-c3cnn(CCO)c3)nc3ccccc23)C1 (stereo unspecified),"inconclusive: 3.16 µM [inhibitor, single point]",–,–
O=c1c2cnn(-c3ccc(F)cc3)c2ncn1Cc1cccc(Cl)c1,–,–,inactive: 41.3% [at 0.594 µM]
CCC(=O)N1CCc2c(C(=O)Nc3ccc(N4CCOCC4)cc3)cccc21,"inconclusive: 11.2 µM [inhibitor, single point]",–,–
N#Cc1cccnc1N1CCC(NC(=O)c2ccc3nccn3c2)CC1,"inconclusive: 3.16 µM [inhibitor, full curve, poor fit]",–,–
CC(C)c1ccc(CN2CC(CN[S+](=O)([O-])c3ccccc3)C3(C2)CN(c2ccccc2)C3)cc1 (stereo unspecified),–,inactive,–
COc1ccc(C)cc1NC(=O)Nc1cccc(-c2ccc(N3CCCCC3)nn2)c1,"inconclusive: 11.2 µM [inhibitor, single point]",–,–
CCn1c(=O)c2cc(C(=O)NCCCOC)sc2c2ccccc21,"inconclusive: 11.2 µM [inhibitor, single point]",–,–
C[S+](=O)([O-])CCn1ncc2cc(OCc3cccc(-c4ccc(Cl)cc4)c3)ccc21,"inconclusive: 31.6 µM [inhibitor, single point]",–,–
COc1ccccc1CC(=O)N1CCC2(CC1)N=C(c1cccc(Br)c1)NO2,"inconclusive: 0.126 µM [inhibitor, full curve, poor fit]",–,–
Cc1ccccc1N(C)C1CN(C(=O)c2ccc3c(c2)OCO3)C1,"inconclusive: 12.6 µM [inhibitor, partial curve, poor fit]",–,–
CCc1cccc(NC(=O)CCC2CCN(C(=O)c3ccccc3)CC2)c1,–,inactive,–
CC(Oc1ccccc1)C(=O)N1CCCN(c2cc(-c3ccc(Cl)cc3)[nH]n2)CC1 (stereo unspecified),"inconclusive: 1.58 µM [inhibitor, full curve, poor fit]",–,–
CCn1cc(S(=O)(=O)N2CCC(c3ncc(C)n3Cc3ccccc3)C2)cn1 (stereo unspecified),"inconclusive: 4.47 µM [inhibitor, partial curve, poor fit]",–,–
Cc1ncccc1C(=O)N1CCC2(CC1)NCCc1c2[nH]c2ccccc12,"inconclusive: 7.94 µM [inhibitor, single point]",–,–
C[C@]1(CO)[C@H]2Cc3sc(NC(=O)c4cccc(F)c4)nc3[C@@H](CC(=O)NCc3ccco3)[C@]2(C)CC[C@H]1O,active: 8.91 µM,–,–
COCCC(=O)N1CC(c2nc(CCOc3cccc(C)c3)no2)C1,"inconclusive: 8.91 µM [inhibitor, single point]",–,–
Cc1cc(C)n2c(Nc3ccc4c(c3)OCCO4)c(-c3ccc(Cl)cc3)nc2n1,"inconclusive: 17.8 µM [inhibitor, single point]",–,–
O=C1C[C@@H]2CCN(C(=O)c3ccccc3)C[C@@H]2CCN1CCN1CCNC1=O,–,–,inactive: -0.586% [at 44.1 µM]
COc1ccc(NC(=O)Cn2c(=O)n(-c3ccccc3)c(=O)c3c4c(sc32)CCCC4)c(OC)c1,–,–,inactive: 26.1%
Cc1ccsc1C(=O)N1CC(Oc2ccc(-c3nc(-c4ccccc4)no3)cc2)C1,"inconclusive: 0.282 µM [inhibitor, full curve]",–,–

SMILES,Potency,outcome,"activity, negative = inhibition"
CN(C)CCN1CC2(CCCN(C(=O)CCc3cc(=O)[nH]o3)C2)CCC1=O (stereo unspecified),–,–,inactive: -20%
CC(C)Oc1ccc2c(NC(=O)C3(C(N)=O)CC3)nn(CC(F)(F)F)c2c1,"inconclusive: 12.6 µM [inhibitor, partial curve, poor fit]",–,–
COC(=O)c1ccccc1NC(=O)CN1C(=O)NC2(CCC(C)CC2)C1=O (stereo unspecified),–,inactive; activator,–
Cc1ccc(C(=O)c2cn(Cc3cccc(C)c3)c3nc(C)ccc3c2=O)cc1,"inconclusive: 17.8 µM [inhibitor, single point]",–,–
Cn1cc([C@@H](NC(=O)c2cccc3c2NCCC3)C2CC(O)C2)cn1 (stereo partly specified),–,–,inactive: 2.21%
O=C(NCCc1ccccn1)C1c2ccccc2C(=O)N(Cc2ccccc2)C12CCCC2 (stereo unspecified),"inconclusive: 20 µM [inhibitor, partial curve, poor fit]",–,–
CNC(=O)[C@@H]1C[C@@H](n2cc(CNC(=O)c3cccc(OC)c3)nn2)CN1,–,–,inactive: 10.7%
CCc1nnc2ccc(NCc3ccccc3)nn12,active: 6.31 µM,–,–
CCS(=O)(=O)N(C1CC1)C1CCOC2(CCN(C(=O)CCCc3ccccc3)CC2)C1 (stereo unspecified),–,inactive,–
COCCc1noc(-c2ccccc2OC2CN(C(=O)c3ccccc3OC)C2)n1,"inconclusive: 7.08 µM [inhibitor, partial curve, poor fit]",–,–
COCCNC(=O)C1c2ccccc2C(=O)N(C2CCCCC2)C12CCCCC2 (stereo unspecified),–,–,inactive: -14.2%
O=C(CCc1nc2ccccc2s1)N1CCCC(c2nc(C3CCOCC3)no2)C1 (stereo unspecified),"inconclusive: 20 µM [inhibitor, single point]",–,–
CC(C)c1ccc(NC(=O)C2CCN(c3cc(C(F)(F)F)ncn3)CC2)cc1,"inconclusive: 17.8 µM [inhibitor, single point]",–,–
CCNC(=O)Nc1ccc(OCC(=O)N2CCCCC2)nc1,–,–,inactive: 18%
CCC(CC)C(=O)N1CCC(N2CCCC(C(=O)NCc3ccccc3)C2)CC1 (stereo unspecified),active: 10 µM,–,–
O=C(c1ccccc1OC1CN(Cc2ccc(F)c(F)c2)C1)N1CCOCC1,"inconclusive: 5.62 µM [inhibitor, partial curve, poor fit]",–,–
Cc1ccc(NC(=O)c2cc(-c3ccc[nH]3)n[nH]2)cc1,–,inactive,–
CC(C)NC(=O)N(C1CCOCC1)C1CNC1,–,–,inactive: -0.897%
COc1cccc(N2CCN(C(=O)CCCn3c(=O)[nH]c4ccc(Br)cc4c3=O)CC2)c1,"inconclusive: 11.2 µM [inhibitor, single point]",–,–
O=C1Nc2ccc(-c3ccccc3F)cc2C(=O)N2CC[C@H](NS(=O)(=O)c3cccs3)[C@@H]12,"inconclusive: 14.1 µM [inhibitor, partial curve, poor fit]",–,–
Cn1c(CN2CCOCC2)nnc1C1CCCN(C(=O)c2cc[nH]c2)C1 (stereo unspecified),–,–,inactive: -11.5%
CCn1cnnc1CC1CCN(C(=O)c2cnn3c(C)c(Cc4ccccc4Cl)c(C)nc23)CC1,"inconclusive: 12.6 µM [inhibitor, partial curve, poor fit]",–,–
